Assay results: PubChem BioAssay AID493208 (National Center for Advancing Translational Sciences (NCATS), 2011)
Among all 44,000 compounds or so, about 340 (0.77%) were called active. Another 5% or so got no clear call; they are omitted. The call rests on the fitted dose curve; in most records, active means well fitted inhibition curve with a large enough effect; inconclusive means small, poorly fitted or top-dose-only effect; inactive means flat fitted curve, though single readings scatter. Some of the results follow.

Experiment: Acumen qHTS Assay for Inhibitors of the mTORC1 Signaling Pathway in MEF (Tsc2-/-, p53-/-) Cells: Sytravon;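 further: plate controls were DMSO for no effect and rapamycin for full effect; nearly all actives have a fitted effect of over 50% in size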
Details: phospho-rpS6 immunofluorescence/PI, 24 h; series mostly up to 38.3 µM; activity change, negative = inhibition: at the top concentration
Summary of the method: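 Readout is phospho-S6 Alexa 488 signal normalized to PI per well, reported as % active cells with thresholds set from rapamycin (7.5 nM) and DMSO controls. Cells: Tsc2-/-, p53-/- MEFs, 24 hrs compound at 37 C; PI cell number serves as viability.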

Activity change, negative = inhibition, inactive:
CCCCOC(=O)c1cccc(NC(=O)/C=C/c2ccccc2Cl)c1 14.8%
COc1ccc(OC)c(NC(=O)CSc2nc3ccccc3c(=O)n2CCC(=O)NC2CCCCC2)c1 -1.77%
O=C(Cn1c(SCC(=O)Nc2ccc(F)cc2)nc2ccccc21)NCc1ccccc1Cl -9.35%
O=C(CCC1N=C2c3ccccc3N=C(SCC(=O)Nc3ccc(F)cc3)N2C1=O)NCc1cccs1 (configuration not stated) -5.88%
Cc1cccc(NC(=O)c2ccc(CNS(=O)(=O)c3ccc4c(c3)C(C)(C)C(=O)N4C)cc2)c1 -0.834%
Cc1ccccc1C(=O)N(Cc1ccc(N(C)C)cc1)CC1CCCO1 (configuration not stated) -7.04%
Cc1ccc(N2CCN(C(=O)NCc3noc4ccc(C)cc34)CC2)c(C)c1 -5.02%
COc1ccccc1NC(=O)CSC1=Nc2ccccc2C2=NC(CC(=O)NCc3ccc4c(c3)OCO4)C(=O)N12 (configuration not stated) -6.03%
CCOC(=O)c1noc2ncnc(NCc3ccccc3OC)c12 4.55%
COc1ccccc1N=C1SC(C(=O)Nc2ccccc2OC)CC(=O)N1C (configuration not stated) 0.459%
O=C(NCCOCCn1c(=O)oc2ccccc21)Nc1cccc(Cl)c1 -2.43%
COC(=O)c1ccccc1NC(=O)C1CCCN(c2ncnc3onc(C)c23)C1 (configuration not stated) 0.419%
Cc1ccc(CNC(=O)c2sc3nc4n(c(=O)c3c2C)CCCCC4)cc1 0.712%
CC(C)c1ccc(NC(=O)c2ccc3c(O)c(S(=O)(=O)c4ccccc4)c(=O)[nH]c3c2)cc1 1.61%
COc1cc(OC)c(N(C)C(=O)c2cc3c(=O)oc4ccccc4c3s2)cc1Cl 0.0992%
O=c1c2ccccc2n2c(-c3ccccc3F)nnc2n1CCc1ccccc1 2.24%
Cc1ccc(C(=O)N(c2ccc(C)cc2)S(=O)(=O)c2ccc(Cl)cc2)cc1 8.97%
Cc1ccc(-n2nc(C(=O)N(C)Cc3ccccc3)c3c4ccccc4n(C)c3c2=O)cc1 10.6%
Cc1ccc(-n2c(=O)c3c(c4cc(C)ccc4n3C)n(Cc3ccc(F)cc3)c2=O)cc1 -7.29%
Cc1ccc(NC(=O)C(Cc2ccccc2)N2Cc3ccccc3C2=O)cc1Cl (configuration not stated) -18.2%
CCCCNC(=O)CCn1c(=O)c2cccn2c2cccnc21 -0.415%
CCN(C(=O)c1c(C)oc2ncn(CC(C)C)c(=O)c12)c1cccc(Cl)c1 -0.643%
COc1ccc(C)cc1NC(=O)c1cc(S(=O)(=O)N2CCc3ccccc3C2)ccc1F -1.34%
Cc1oc(-c2ccc(C(=O)NCc3ccccc3Cl)cc2)nc1CN1CCc2ccccc21 -25.8%
CCCn1c(CCC(=O)Nc2ccc(C)c(Cl)c2)nc2cccnc21 -1.74%
O=C(CC1N=C2c3ccccc3N=C(SCc3cccc(Cl)c3)N2C1=O)NCCc1ccccc1 (configuration not stated) -2.76%
CCC1=C(c2ccc(C)cc2)S(=O)(=O)N=C1N1CCC(C(=O)NCCc2ccc(Cl)cc2)CC1 -17.8%
Cc1ccc(S(=O)(=O)C(CNC(=O)C(=O)NCCc2ccc(Cl)cc2)c2cccs2)cc1 (configuration not stated) -4.09%
CCCS(=O)(=O)N1CC(=O)N(c2ccc(C)cc2C)C(C)(C(=O)NC2CCCCCC2)C1 (configuration not stated) 2.72%
O=C(Cn1c(=O)nc(-c2ccccc2)c2cc(Cl)ccc21)NCc1ccc(Cl)cc1 1.63%
CCOc1ccc(CCNC(=O)c2ccc3c(c2)N(Cc2ccccc2F)C(=O)c2ccccc2S3=O)cc1OCC (configuration not stated) -9.24%
COc1ccc(CCNS(=O)(=O)c2cc(-c3onc(C)c3C)ccc2OC)cc1OC -3.21%
O=C(CCS(=O)(=O)c1cc2c3c(c1)CCN3C(=O)CC2)Nc1cccc(Br)c1 -7.25%
O=C(Nc1cnn(Cc2ccc(Cl)cc2Cl)c1)c1noc2c1CCc1ccccc1-2 -6.66%
COc1ccc(C(CC(=O)Nc2cc(OC)c(OC)c(OC)c2)N2Cc3ccccc3C2=O)cc1 (configuration not stated) -0.463%
Cc1ccc(C)c(Nc2nn3c(=O)c4cc5c(cc4nc3s2)OCO5)c1 -1.46%
CCc1ccc(NC(=O)CSc2nc(=O)n(Cc3ccncc3)c3c2CCC3)cc1 2%
CCN1CCN(CCCNC(=O)Cn2c(-c3cccs3)cc3cc(F)ccc32)CC1 -1.55%
O=C(COCc1cc(-c2ccc3c(c2)OCO3)on1)Nc1cc(C(F)(F)F)ccc1Cl -0.359%
Cc1cc2c(cc1S(=O)(=O)CCC(=O)N1CCCCC1C)OCC(=O)N2 (configuration not stated) -0.121%
CCOC(=O)N1CCc2c(sc(NCc3cccs3)c2C(=O)Nc2ccc(OC)cc2OC)C1 0.808%
COc1ccccc1N1CCN(S(=O)(=O)CCNC(=O)Cc2ccc(Cl)cc2)CC1 2.51%
O=c1c(S(=O)(=O)c2ccccc2)cn(Cc2cccc(F)c2)c2cc(N3CCCC3)c(F)cc12 -4.92%
Cn1c(=O)c2c(nc(N3CCOCC3)n2Cc2ccccc2Cl)n(C)c1=O 3.91%
CC(C)Cn1c(-c2ccccc2Cl)nc2ccccc21 -7.89%
O=C(NCCc1ccc(Cl)cc1)c1nnc(Cc2ccc(Cl)cc2Cl)o1 3.21%
Cc1nc(S(=O)(=O)N2CCN(c3cccc(Cl)c3)CC2)cn1C -0.355%
COc1cc(OC)cc(-c2nnc(SCC(=O)c3ccc([N+](=O)[O-])cc3)o2)c1 -3.05%
O=C(NCCc1ccc(Cl)cc1)c1ccc2nc(CCc3ccccc3)oc2c1 4.21%
COc1ccc(N(CC(=O)NCCc2ccc(C)cc2)S(=O)(=O)c2c(C)nn(C)c2C)cc1 -1.97%
CC(C)Cn1c(CN2CCN(c3cccc(Cl)c3)CC2)nc2c1c(=O)[nH]c(=O)n2C -22%
COc1cc(Nc2nn(-c3ccc(OC(F)(F)F)cc3)nc2C(C)=O)cc(OC)c1 2.53%
CCOC(=O)c1cc(-c2ccc(OC)cc2)n(CCC(=O)Nc2cccc(C)c2C)c1C -0.575%
CCCCc1nn2c(=O)cc(COC(=O)c3ccc4c(c3)OCO4)nc2s1 -1.13%
COc1cc(OC)cc(-n2c(=O)c3ccccc3n(Cc3ccccc3C#N)c2=O)c1 1.74%
COc1ccccc1C(=O)NCC(c1ccc(N(C)C)cc1)N1CCc2ccccc21 (configuration not stated) 0%
COC(=O)c1ccccc1NC(=O)Cn1nnc(-c2ccc(OC)cc2)n1 0.698%
CCOc1ccc(-c2cn3c(n2)sc2cc(C(=O)NCCCN4CCCCC4)ccc23)cc1 2.45%
CC1=C(C(=O)Nc2ccccc2)C(C(C)C)n2nc(SCc3ccccc3C)nc2N1 (configuration not stated) -9.91%
CCC(=O)Nc1cc(-c2cn3cccnc3n2)ccc1OC 5.51%
CCc1ccc(NC(=O)Cn2nc(C(F)(F)F)c3c2CCCC3)cc1 3.48%
COc1cc(NC(=O)c2ccc(-c3nc(CSc4ccccc4)c(C)o3)cc2)cc(OC)c1 -7.26%
O=C(Cn1ncn2cccc2c1=O)NCc1cccc(Br)c1 1.28%
COc1ccc(N(CC(C)C)S(=O)(=O)c2nnc(NC(=O)c3ccco3)s2)cc1 -10.5%
Cc1c(Cl)cccc1NC(=O)Cn1c(=O)cc(C)c2c(C)nn(-c3cccc(F)c3)c21 -14.9%
COc1ccc(NC(=O)c2cc(-c3ccc(F)cc3)no2)cc1OC 6.19%
COc1ccccc1Cc1nc2ccccc2nc1SCC(=O)Nc1c(C)cccc1C 8.51%
Cc1cc(NC(=O)c2ccco2)cc(-c2nc3ccccc3o2)c1O -0.128%
CCCNC(=O)Cn1nc(-c2ccc(C)cc2)c2cnc3ccc(CC)cc3c21 -0.244%
CCn1c(C)c(C)c2cc(C(=O)N3CCN(c4ccccc4)CC3)ccc21 5.05%
CCN(C(=O)CCS(=O)(=O)c1cc2c(cc1C)NC(=O)CO2)c1cccc(C)c1 6.69%
CN(C)CCN(Cc1ccccc1)S(=O)(=O)c1csc(C(N)=O)c1 3.82%
Cc1ccc(Cl)cc1NC(=O)CN1C(=O)c2ccccc2Sc2ncccc21 -8.21%
Cc1ccc(CNS(=O)(=O)c2c(C)nc3sc(C)cn3c2=O)cc1 3.18%
CCc1ccc(-c2nc(CS(=O)CC(=O)NCc3ccc(F)cc3)c(C)o2)cc1 (configuration not stated) -5.64%
COc1ccc(CCNC(=O)c2ccc3c(c2)nc2n3CCCCC2)cc1OC -13.9%
CCCn1cnc2cc(NC(=O)c3cc(OC)c(OC)c(OC)c3)ccc21 -6.25%
Cc1cccc(N2CCN(Cc3nnc(-c4cccc(Br)c4)o3)CC2)c1C 5.51%
CCCOC(=O)c1cccc(NC(=O)CSc2nnc3cc(C)c4ccccc4n23)c1 -10.1%
CC(=O)c1ccc(NC(=O)c2nc(-c3ccccc3)n(-c3ccc(C)cc3)n2)cc1 1.38%
O=C(NCc1cccc(Cl)c1)C1CCCN(c2nn3cc(-c4ccc(F)cc4)nc3s2)C1 (configuration not stated) 1.84%
Clc1ccc2nc(-c3ccc(N4CCOCC4)cc3)c(Nc3ccccc3)n2c1 1.32%
COc1ccccc1NC(=O)Cn1c(=O)oc2cc(S(=O)(=O)NCc3ccccc3)ccc21 -6.03%
CCc1ccccc1N(C)C(=O)c1nn(-c2ccc(OC)cc2)c(=O)c2c1c1ccccc1n2C -0.403%
Cc1cccc(NC(=O)c2ccc3oc(=O)c(S(=O)(=O)c4ccc(F)cc4)cc3c2)c1C 3.86%
CCOc1ccc(CNc2cc(C)nc3nc(-c4cccc(C)c4)nn23)cc1OC -0.893%
CCOc1ccc(S(=O)(=O)c2cc3cccc(OCC)c3oc2=O)cc1 -12.2%
CC1CCc2c(sc3nnn(Cc4ccccc4Cl)c(=O)c23)C1 (configuration not stated) -0.189%
CCOC(=O)c1cc(C)n(CC2CCC(C(=O)Nc3cccc(C(C)=O)c3)CC2)c1C (configuration not stated) -0.791%
CCOc1ccccc1CNCc1c(C(=O)O)n(Cc2ccccc2)c2cc(OC)ccc12 -10.6%
CCOc1ccccc1Oc1ncnc2c1oc1ccccc12 -2.1%
CC1CCC(NC(=O)c2ccc3c(c2)N(Cc2ccccc2F)C(=O)c2ccccc2S3(=O)=O)CC1 (configuration not stated) -10.2%
COc1ccccc1OCc1nc2ccccc2n1Cc1ccccc1 -6.05%
CCOc1ccccc1C1C(C(=O)Nc2ccccc2)=C(C)Nc2nc(-c3ccccc3)nn21 (configuration not stated) 0.783%
CCCCn1c(SCC(=O)c2ccccc2)nc2sc3c(c2c1=O)CCCC3 -6.77%
CCOc1ccccc1NCc1nnc2n1CCCCC2 3.44%
Cc1ccc(-c2nnc3c4ccccc4c(-c4ccccc4)nn23)cc1 -7.63%
